This experiment addresses T1, Human LAG-3 protein (Cat#LA3-5222, Acrobiosystems) (human, UniProt P18627 23-450).
T1 construct: Bought protein; also called recombinant human LAG-3; LAG3 recombinant protein
T1 sequence: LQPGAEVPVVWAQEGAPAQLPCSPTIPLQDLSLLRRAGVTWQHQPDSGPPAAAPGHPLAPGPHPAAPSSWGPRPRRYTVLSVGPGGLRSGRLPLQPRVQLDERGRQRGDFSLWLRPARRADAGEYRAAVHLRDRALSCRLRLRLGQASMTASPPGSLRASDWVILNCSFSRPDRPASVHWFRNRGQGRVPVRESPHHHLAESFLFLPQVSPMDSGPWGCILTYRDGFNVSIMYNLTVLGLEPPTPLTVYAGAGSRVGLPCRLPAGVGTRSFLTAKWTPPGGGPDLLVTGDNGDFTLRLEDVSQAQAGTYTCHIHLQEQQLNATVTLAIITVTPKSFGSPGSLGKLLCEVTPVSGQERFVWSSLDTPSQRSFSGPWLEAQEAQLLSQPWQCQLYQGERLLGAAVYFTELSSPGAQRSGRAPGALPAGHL
The experiment can be described thus: phage ELISA on coated LAG3. (ELISA stands for enzyme-linked immunosorbent assay.)

We go through one molecule from patent US20190016800A1 (NANJING LEADS BIOLABS, published 2019).

B1: clone 13# as single chain Fv displayed on phage (scFv)
scFv: QVQLQESGGGVVRPGGSLRLSCAASGFTFDDYGMSWVRQAPGKGLEWVSGINWSGGSTYYADSVKGRSTISRDNSKNTLYLQMNSLRAEDTAVYYCATGGYWGQGTLVTVSSSGGSTITSYNVYYTKLSSSGT[gap - about 120 residues]
For the molecule B1, the binding result is “binds”.
